The list shows a part of the results.
Assays:
Assay in all cases: glycan array binding signal (z-score within array); higher = stronger binding
Settings in all cases: glycan notation: IUPAC condensed, linker removed
[1] = target: Neu5Ac(a2-3)Gal(b1-4)[Fuc(a1-3)]GlcNAc
In short: (§1)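 Columns mapping to the same glycan were averaged after glycan names were converted to IUPAC-condensed notation. The data come from 3228 arrays in the Consortium for Functional Glycomics database, limited to those with an available protein sequence. Binding is reported as a within-array Z-score averaged across arrays of one protein sequence and across linkers.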

[2] = target: Neu5Ac(a2-3)Gal(b1-4)[Fuc(a1-3)]GlcNAc(b1-3)Gal
In short: as §1

[3] = target: Neu5Ac(a2-3)Gal(b1-4)[Fuc(a1-3)]GlcNAc(b1-3)Gal(b1-4)GlcNAc
In short: as §1

[4] = target: Neu5Ac(a2-3)Gal(b1-4)[Fuc(a1-3)]GlcNAc(b1-3)Gal(b1-4)[Fuc(a1-3)]GlcNAc(b1-3)Gal(b1-4)[Fuc(a1-3)]GlcNAc
In short: as §1

[5] = target: Neu5Ac(a2-3)Gal(b1-4)[Fuc(a1-3)]GlcNAc(b1-6)[Gal(b1-3)]GalNAc
In short: as §1

[6] = target: Neu5Ac(a2-3)Gal(b1-4)[Fuc(a1-3)]GlcNAc6S
In short: as §1

[7] = target: Neu5Ac(a2-3)Gal6S(b1-4)GlcNAc
In short: as §1

[8] = target: Neu5Ac(a2-3)Gal6S(b1-4)[Fuc(a1-3)]GlcNAc
In short: as §1

Neu5Ac(a2-3)GalNAc = target: Neu5Ac(a2-3)GalNAc
In short: as §1

[9] = target: Neu5Ac(a2-3)GalNAc(b1-4)GlcNAc
In short: as §1

[10] = target: Neu5Ac(a2-3)[GalNAc(b1-4)]Gal(b1-4)Glc
In short: as §1

[11] = target: Neu5Ac(a2-3)[GalNAc(b1-4)]Gal(b1-4)GlcNAc
In short: as §1

[12] = target: Neu5Ac(a2-3)[Neu5Ac(a2-6)]GalNAc
In short: as §1

Neu5Ac(a2-6)Gal = target: Neu5Ac(a2-6)Gal
In short: as §1

Neu5Ac(a2-6)Gal(b1-4)Glc = target: Neu5Ac(a2-6)Gal(b1-4)Glc
In short: as §1

[13] = target: Neu5Ac(a2-6)Gal(b1-4)GlcNAc
In short: as §1

[14] = target: Neu5Ac(a2-6)Gal(b1-4)GlcNAc(b1-2)Man(a1-3)[Gal(b1-4)GlcNAc(b1-2)Man(a1-6)]Man(b1-4)GlcNAc(b1-4)GlcNAc
In short: as §1

[15] = target: Neu5Ac(a2-6)Gal(b1-4)GlcNAc(b1-2)Man(a1-3)[GlcNAc(b1-2)Man(a1-6)]Man(b1-4)GlcNAc(b1-4)GlcNAc
In short: as §1

[16] = target: Neu5Ac(a2-6)Gal(b1-4)GlcNAc(b1-2)Man(a1-3)[GlcNAc(b1-2)Man(b1-4)GlcNAc(b1-2)Man(a1-6)]Man(b1-4)GlcNAc(b1-4)GlcNAc
In short: as §1

[17] = target: Neu5Ac(a2-6)Gal(b1-4)GlcNAc(b1-2)Man(a1-3)[Neu5Ac(a2-6)Gal(b1-4)GlcNAc(b1-2)Man(a1-6)]Man(b1-4)GlcNAc(b1-4)GlcNAc
In short: as §1

[18] = target: Neu5Ac(a2-6)Gal(b1-4)GlcNAc(b1-2)Man(a1-6)[Gal(b1-4)GlcNAc(b1-2)Man(a1-3)]Man(b1-4)GlcNAc(b1-4)GlcNAc
In short: as §1

[19] = target: Neu5Ac(a2-6)Gal(b1-4)GlcNAc(b1-2)Man(a1-6)[GlcNAc(b1-2)Man(a1-3)]Man(b1-4)GlcNAc(b1-4)GlcNAc
In short: as §1

[20] = target: Neu5Ac(a2-6)Gal(b1-4)GlcNAc(b1-3)Gal(b1-4)GlcNAc
In short: as §1

[21] = target: Neu5Ac(a2-6)Gal(b1-4)GlcNAc(b1-3)Gal(b1-4)[Fuc(a1-3)]GlcNAc(b1-3)Gal(b1-4)[Fuc(a1-3)]GlcNAc
In short: as §1

[22] = target: Neu5Ac(a2-6)Gal(b1-4)GlcNAc6S
In short: as §1

Neu5Ac(a2-6)GalNAc = target: Neu5Ac(a2-6)GalNAc
In short: as §1

[23] = target: Neu5Ac(a2-6)GalNAc(b1-4)GlcNAc
In short: as §1

Neu5Ac(a2-8)Neu5Ac = target: Neu5Ac(a2-8)Neu5Ac
In short: as §1

[24] = target: Neu5Ac(a2-8)Neu5Ac(a2-3)Gal(b1-4)Glc
In short: as §1

[25] = target: Neu5Ac(a2-8)Neu5Ac(a2-3)[GalNAc(b1-4)]Gal(b1-4)Glc
In short: as §1

[26] = target: Neu5Ac(a2-8)Neu5Ac(a2-8)Neu5Ac
In short: as §1

[27] = target: Neu5Ac(a2-8)Neu5Ac(a2-8)Neu5Ac(a2-3)Gal(b1-4)Glc
In short: as §1

[28] = target: Neu5Ac(a2-8)Neu5Ac(a2-8)Neu5Ac(a2-3)[GalNAc(b1-4)]Gal(b1-4)Glc
In short: as §1

[29] = target: Neu5Ac(a2-8)Neu5Ac(a2-8)Neu5Ac(a2-8)Neu5Ac(a2-3)[GalNAc(b1-4)]Gal(b1-4)Glc
In short: as §1

[30] = target: Neu5Ac(b2-6)Gal(b1-4)GlcNAc
In short: as §1

Neu5Ac(b2-6)GalNAc = target: Neu5Ac(b2-6)GalNAc
In short: as §1

[31] = target: Neu5Ac9Ac(a2-6)Gal(b1-4)GlcNAc
In short: as §1

[32] = target: Neu5Gc(a2-3)Gal(b1-3)GlcNAc
In short: as §1

[33] = target: Neu5Gc(a2-3)Gal(b1-3)[Fuc(a1-4)]GlcNAc
In short: as §1

Neu5Gc(a2-3)Gal(b1-4)Glc = target: Neu5Gc(a2-3)Gal(b1-4)Glc
In short: as §1

[34] = target: Neu5Gc(a2-3)Gal(b1-4)GlcNAc
In short: as §1

[35] = target: Neu5Gc(a2-3)Gal(b1-4)[Fuc(a1-3)]GlcNAc
In short: as §1

[36] = target: Neu5Gc(a2-6)Gal(b1-4)GlcNAc
In short: as §1

Neu5Gc(a2-6)GalNAc = target: Neu5Gc(a2-6)GalNAc
In short: as §1

[37] = target: Neu5Gc(b2-6)Gal(b1-4)GlcNAc
In short: as §1

B1: Regenerating Gene I (Homo sapiens), P05451 (protein)
chain: MAQTSSYFMLISCLMFLSQSQGQEAQTELPQARISCPEGTNAYRSYCYYFNEDRETWVDADLYCQNMNSGNLVSVLTQAEGAFVASLIKESGTDDFNVWIGLHDPKKNRRWHWSSGSLVSYKSWGIGAPSSVNPGYCVSLTSSTGFQKWKDVPCEDKFSFVCKFKN
[1]
  glycan array binding signal (z-score): -0.49
[2]
  glycan array binding signal (z-score): -0.613
[3]
  glycan array binding signal (z-score): -0.124
[4]
  glycan array binding signal (z-score): -0.599
[5]
  glycan array binding signal (z-score): -0.128
[6]
  glycan array binding signal (z-score): 0.726
[7]
  glycan array binding signal (z-score): 0.18
[8]
  glycan array binding signal (z-score): -0.213
Neu5Ac(a2-3)GalNAc
  glycan array binding signal (z-score): -0.303
[9]
  glycan array binding signal (z-score): -0.617
[10]
  glycan array binding signal (z-score): -0.584
[11]
  glycan array binding signal (z-score): -0.372
[12]
  glycan array binding signal (z-score): 0.008
Neu5Ac(a2-6)Gal
  glycan array binding signal (z-score): -0.069
Neu5Ac(a2-6)Gal(b1-4)Glc
  glycan array binding signal (z-score): -0.406
[13]
  glycan array binding signal (z-score): -0.296
[14]
  glycan array binding signal (z-score): -0.23
[15]
  glycan array binding signal (z-score): -0.412
[16]
  glycan array binding signal (z-score): -0.446
[17]
  glycan array binding signal (z-score): -0.473
[18]
  glycan array binding signal (z-score): -0.33
[19]
  glycan array binding signal (z-score): -0.079
[20]
  glycan array binding signal (z-score): -0.538
[21]
  glycan array binding signal (z-score): -0.304
[22]
  glycan array binding signal (z-score): -0.619
Neu5Ac(a2-6)GalNAc
  glycan array binding signal (z-score): -0.4
[23]
  glycan array binding signal (z-score): -0.493
Neu5Ac(a2-8)Neu5Ac
  glycan array binding signal (z-score): 0.315
[24]
  glycan array binding signal (z-score): -0.532
[25]
  glycan array binding signal (z-score): -0.445
[26]
  glycan array binding signal (z-score): -0.385
[27]
  glycan array binding signal (z-score): -0.596
[28]
  glycan array binding signal (z-score): -0.518
[29]
  glycan array binding signal (z-score): -0.527
[30]
  glycan array binding signal (z-score): -0.404
Neu5Ac(b2-6)GalNAc
  glycan array binding signal (z-score): -0.57
[31]
  glycan array binding signal (z-score): 0.261
[32]
  glycan array binding signal (z-score): 0.068
[33]
  glycan array binding signal (z-score): -0.332
Neu5Gc(a2-3)Gal(b1-4)Glc
  glycan array binding signal (z-score): -0.281
[34]
  glycan array binding signal (z-score): -0.484
[35]
  glycan array binding signal (z-score): -0.453
[36]
  glycan array binding signal (z-score): -0.469
Neu5Gc(a2-6)GalNAc
  glycan array binding signal (z-score): 0.667
[37]
  glycan array binding signal (z-score): 0.693
